Several values for one entry are separate records, joined by “and”; a condition that tells them apart may be missing. Identical values can stand only once. Screen size: about 270,000 compounds; about 620 (0.23%) were called active. The inconclusive results got no clear call from the source; some entries with a clear call stand among them for comparison. Calls come from the whole dose curve; as a rule, active = well fitted inhibition curve with a large enough effect in the polarisation, with a control signal flat (not every such curve was filed as active); inconclusive = small, poorly fitted or top-dose-only effect, or effect the other way, or a change in a side signal; inactive = no such curve, though single readings can be large or run the other way; the % refers to the polarisation. Where the call is inconclusive, the potency comes from a doubtful curve fit. “Side channel” marks fits to a control or component signal instead of the main read-out.
The compounds below were run against Menin (Homo sapiens) (UniProt O00255) (assay: qHTS Assay for Inhibitors Targeting the Menin-MLL Interaction in MLL Related Leukemias: Competition With Texas Red Labeled MLL-derived Mutant Peptide). Details: fluorescence polarization; series mostly up to 61.6 µM; FP activity change, negative = inhibition: at the top concentration.
Potency is the fitted concentration of half-maximal effect; tags give direction and shape of the fitted curve or compound fluorescence and quenching.
Throughout, for FP activity change, negative = inhibition: % of control where 0% means no effect.

UniProt O00255, sequence (O00255 whole entry, looked up): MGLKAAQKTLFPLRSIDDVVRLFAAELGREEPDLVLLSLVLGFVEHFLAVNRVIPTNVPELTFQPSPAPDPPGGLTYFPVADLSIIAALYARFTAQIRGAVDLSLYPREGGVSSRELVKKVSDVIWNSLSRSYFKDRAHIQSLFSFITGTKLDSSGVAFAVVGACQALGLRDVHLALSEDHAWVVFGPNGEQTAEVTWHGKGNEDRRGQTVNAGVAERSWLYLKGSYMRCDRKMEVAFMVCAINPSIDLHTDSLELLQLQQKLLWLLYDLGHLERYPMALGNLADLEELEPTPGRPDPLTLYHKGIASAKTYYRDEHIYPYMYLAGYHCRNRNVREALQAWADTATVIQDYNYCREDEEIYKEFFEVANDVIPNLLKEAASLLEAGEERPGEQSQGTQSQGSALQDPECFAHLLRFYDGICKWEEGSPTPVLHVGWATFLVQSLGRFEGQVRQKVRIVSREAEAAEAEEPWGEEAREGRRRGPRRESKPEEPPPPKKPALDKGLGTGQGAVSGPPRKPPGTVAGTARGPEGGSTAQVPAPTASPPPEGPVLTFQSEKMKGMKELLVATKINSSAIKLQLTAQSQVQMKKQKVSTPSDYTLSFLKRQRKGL

Row | SMILES | Potency | FP activity change, negative = inhibition
1 | Cc1cc(/C=C2\C(=O)NC(=O)N(c3ccc(Cl)cc3)C2=O)c(C)n1C | inconclusive: 5.62 µM [fluorescent, side channel, single point] | 
2 | CCC(COC(=O)c1cc(OC)c(OC)c(OC)c1)(c1ccccc1)N(C)C (configuration not stated) | inconclusive: 25.1 µM [fluorescent, side channel, single point] and inconclusive: 12.6 µM [fluorescent, side channel, partial curve, poor fit] | 
3 | COc1cccc(N=Cc2c(O)n(Cc3ccco3)c(=O)[nH]c2=O)c1 | inconclusive: 35.5 µM [inhibitor, single point] | 
4 | CN(CCOc1ccc(C=C2C(=O)NC(=O)NC2=O)cc1)c1ccccn1 |  | inactive: 7.27%
5 | O=c1[nH]c(=S)n(C2CC2)c(O)c1C=Nc1cccc(C(F)(F)F)c1 | inconclusive: 28.2 µM [fluorescent, side channel, partial curve] | 
6 | CCCCn1c(N)c(C(=O)NCc2cccs2)c2nc3ccccc3nc21 | inconclusive: 28.2 µM [quencher, side channel, partial curve] | 
7 | Ic1ccccc1CNC1C2CCN(CC2)C1C(c1ccccc1)c1ccccc1 (configuration not stated) | inconclusive: 7.94 µM [fluorescent, side channel, partial curve] | 
8 | COc1ccc(OC)c(N2C(=O)NC(=O)/C(=C\c3ccc([N+](=O)[O-])s3)C2=O)c1 | inconclusive: 3.55 µM [quencher, side channel, partial curve] | 
9 | Nc1c(C(=O)NCc2ccco2)c2nc3ccccc3nc2n1Cc1ccc(F)cc1 |  | inactive: 14.3%
10 | Oc1c(Cl)c(Cl)c(Cl)c(Cl)c1Cl | inconclusive: 22.4 µM [quencher, side channel, partial curve] | 
11 | COc1ccc(OC)c(-n2c(O)c(C=NCc3ccc4c(c3)OCO4)c(=O)[nH]c2=O)c1 |  | inactive: 3.79%
12 | O=C1CC(c2cccnc2)=NN1c1ccccc1 | inconclusive: 31.6 µM [quencher, side channel, single point] | 
13 | O=C(N/N=C/c1c(O)n(C2CCCCC2)c(=S)[nH]c1=O)c1ccccc1 |  | inactive: 38.6%
14 | CC(C)CCn1c(=O)c(C(=O)NCc2ccc3c(c2)OCO3)c(O)c2ccccc21 | inconclusive: 10 µM [inhibitor, partial curve] | 
15 | C=C1CCC(O)C/C1=C/C=C1\CCC[C@]2(C)[C@@H]([C@H](C)CCCC(C)C)CC[C@@H]12 (some centres not stated) | inconclusive: 0.708 µM [inhibitor, full curve, poor fit] | 
16 | Cc1cc(OCC(=O)N[C@H](C(=O)O)c2ccccc2)c2c3c(c(=O)oc2c1)CCC3 | inconclusive: 39.8 µM [inhibitor, single point] | 
17 | CCOC(OCC)P(=O)(O)CCCN | inconclusive: 39.8 µM [inhibitor, single point] | 
18 | OCCN1CCN(CCCN2c3ccccc3Sc3ccc(C(F)(F)F)cc32)CC1 | inactive and inconclusive: 5.01 µM [fluorescent, side channel, full curve] | 
19 | Cc1cc(SCc2sc(-c3ccc(C(F)(F)F)c(F)c3)nc2C)ccc1OCC(=O)O | inconclusive: 11.2 µM [quencher, side channel, partial curve] | 
20 | Cc1ccccc1-n1c(O)c(/C=C2/C(c3ccccc3)=Nc3ccccc32)c(=O)[nH]c1=O | inconclusive: 39.8 µM [quencher, side channel, single point] | 
21 | Clc1ccc2c(c1)C(c1ccccc1Cl)=NCc1nnc(N3CCN(CCSc4ccccc4)CC3)n1-2 | inconclusive: 22.4 µM [fluorescent, side channel, partial curve, poor fit] | 
22 | CCc1ccc(CN2CCN(Cc3ccc(SC)cc3)CC2)cc1 | inconclusive: 14.1 µM [fluorescent, side channel, partial curve] | 
23 | CCOP(=O)(OCC)c1nc(-c2ccc(Br)cc2)oc1N1CCCCC1 | inconclusive: 7.08 µM [fluorescent, side channel, partial curve] | 
24 | C[C@@H](CO)NC(=O)[C@@H]1C=C2c3cccc4[nH]cc(c34)C[C@H]2N(C)C1 |  | inactive: -13.6% [at 24.8 µM]
25 | O=c1c2ccccc2nc(/C=C/c2ccc(O)c(O)c2)n1-c1ccccc1 | inconclusive: 14.1 µM [quencher, side channel, partial curve] | 
26 | O=c1[nH]c(=O)n(-c2ccc(F)cc2)c(O)c1/C=C1\C=Nc2ccccc21 | inconclusive: 39.8 µM [fluorescent, single point] | 

Row | SMILES | Potency | FP activity change, negative = inhibition
27 | CCOC(=O)c1c(C)n(Cc2ccco2)c2ccc(O)cc12 | inconclusive: 39.8 µM [quencher, side channel, single point] | 
28 | Cc1ccc(O)c(C(=O)c2cc(C(=O)NCCC(C)C)c(=O)n(CCC(C)C)c2)c1 | inconclusive: 1.41 µM [fluorescent, side channel, full curve] | 
29 | O=C(Nc1cc(C(F)(F)F)cc(C(F)(F)F)c1)c1cc(Cl)ccc1O | inconclusive: 7.08 µM [quencher, side channel, full curve] and inconclusive: 12.6 µM [quencher, side channel, partial curve] | 
30 | FC(F)(F)c1ccc2c(c1)ncn2C1CCN(Cc2nnnn2C2CCCCC2)CC1 |  | inactive: -2.9%
31 | COCCCn1c(N)c(C(=O)Nc2sc3c(c2C(=O)OC)CCCC3)c2nc3ccccc3nc21 | inconclusive: 3.16 µM [quencher, side channel, full curve] | 
32 | Cc1cccc(N2C(=O)NC(=O)/C(=C\c3cnn(-c4ccccc4)c3)C2=O)c1 | inconclusive: 14.1 µM [quencher, side channel, single point] | 
33 | COc1ccc(NC(=O)Cn2c3ccccc3c3nc4n(c(=O)c32)CCS4)cc1 | inconclusive: 39.8 µM [fluorescent, side channel, single point] | 
34 | Cc1ccc(Oc2cnn(-c3ccccc3)c(=O)c2Br)cc1 | inconclusive: 8.91 µM [fluorescent, side channel, full curve, poor fit] | 
35 | NS(=O)(=O)c1ccc(-c2ccc(C=C3C(=O)NC(=S)NC3=O)o2)cc1 | inconclusive: 39.8 µM [quencher, side channel, single point] | 
36 | COc1ccc(-c2[nH]ncc2CNC(C)Cc2cccc(C)n2)cc1F (configuration not stated) | inconclusive: 17.8 µM [inhibitor, partial curve] | 
37 | Cc1c(C(=O)Nc2ccccc2)c2cc(O)ccc2n1Cc1ccccc1 | inconclusive: 25.1 µM [quencher, side channel, single point] | 
38 | CCc1ccccc1N1C(=O)CC(=O)NC1=O | inconclusive: 3.16 µM [inhibitor, single point] | 
39 | ClC1=C(Cl)C(Cl)(C2(Cl)C(Cl)=C(Cl)C(Cl)=C2Cl)C(Cl)=C1Cl | inconclusive: 14.1 µM [quencher, side channel, partial curve] | 
40 | Nc1ccc(N)cc1 | inconclusive: 3.55 µM [inhibitor, full curve] and inconclusive: 3.16 µM [inhibitor, partial curve] | 
41 | O=C1NC(=O)C(Sc2ccccc2[N+](=O)[O-])C(=O)N1 | inconclusive: 11.2 µM [quencher, side channel, partial curve] | 
42 | CC(C)(O)[C@H]1O[C@@H]2CC[C@]3(C)[C@@]4(C)c5[nH]c6ccccc6c5C[C@@H]4CC[C@]3(O)C2=CC1=O | inconclusive: 15.8 µM [quencher, side channel, partial curve] | 
43 | O=C(Nc1cccc(Cl)c1)c1c(O)c2c(n(Cc3ccco3)c1=O)CCCC2 | inconclusive: 39.8 µM [quencher, side channel, single point] | 
44 | CN(C(=O)c1ccc(Cl)nc1)C1(c2ccccc2Cl)CCCCC1=O (configuration not stated) | inconclusive: 17.8 µM [inhibitor, partial curve] | 
45 | CC(=O)[C@@]1(O)CC[C@H]2C3CCC4=CC(=O)CC[C@]4(C)C3CC[C@@]21C (some centres not stated) | inconclusive: 10 µM [fluorescent, side channel, partial curve] | 
46 | O=C(c1ccc(N2CC3CC(C2)c2cccc(=O)n2C3)c([N+](=O)[O-])c1)N1CCCCC1 (configuration not stated) | inconclusive: 3.16 µM [inhibitor, partial curve] | 
47 | O=C(Nc1cccc(C(=O)Nc2cc(C(=O)Nc3ccc([S+](=O)([O-])[O-])c4cc([S+](=O)([O-])[O-])cc(SOOO)c34)ccc2F)c1)Nc1cccc(C(=O)Nc2cc(C(=O)Nc3ccc([S+](=O)([O-])[O-])c4cc([S+](=O)([O-])[O-])cc([S+](=O)([O-])[O-])c34)ccc2F)c1 |  | inactive: 17.5%
48 | CCn1ccnc1CN1CCCC(C(=O)c2cc(F)ccc2OC)C1 (configuration not stated) |  | inactive: -8.56%
49 | CCc1ccc(OCC(=O)N2CCN(Cc3ccc4c(c3)OCO4)CC2)cc1 | inconclusive: 17.8 µM [fluorescent, side channel, partial curve] | 
50 | C=CCn1c(O)c(/C=C2/C=c3ccccc3=N2)c(=O)[nH]c1=S | inconclusive: 20 µM [quencher, side channel, partial curve] | 
51 | CCOC(=O)c1c(C)n(Cc2ccco2)c2c1cc(O)c1ccccc12 | inconclusive: 31.6 µM [quencher, side channel, single point] | 
52 | O=c1[nH]c(=S)n(C2CC2)c(O)c1/C=N/Nc1cccc2ccccc12 | inconclusive: 10 µM [quencher, side channel, partial curve] | 

Source: PubChem BioAssay AID1768 (National Center for Advancing Translational Sciences (NCATS), 2009)
